Test results reported in PMC4336329 (PLoS ONE, 2015).
The campaign covered roughly 310,000 compounds. About 14,000 (4.5%) showed an effect of 50% or more. Effects have a minus sign here. The list shows a part of the results.

Target: human ether-à-go-go-related gene (hERG) potassium channel (human, UniProt Q12809)
Test: primary screen, population patch clamp on CHO cells stably expressing hERG
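Further: peak tail current of the secondary pulse compared with the same well before compound.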

Sequence of human ether-à-go-go-related gene (hERG) potassium channel (Q12809 whole entry, looked up): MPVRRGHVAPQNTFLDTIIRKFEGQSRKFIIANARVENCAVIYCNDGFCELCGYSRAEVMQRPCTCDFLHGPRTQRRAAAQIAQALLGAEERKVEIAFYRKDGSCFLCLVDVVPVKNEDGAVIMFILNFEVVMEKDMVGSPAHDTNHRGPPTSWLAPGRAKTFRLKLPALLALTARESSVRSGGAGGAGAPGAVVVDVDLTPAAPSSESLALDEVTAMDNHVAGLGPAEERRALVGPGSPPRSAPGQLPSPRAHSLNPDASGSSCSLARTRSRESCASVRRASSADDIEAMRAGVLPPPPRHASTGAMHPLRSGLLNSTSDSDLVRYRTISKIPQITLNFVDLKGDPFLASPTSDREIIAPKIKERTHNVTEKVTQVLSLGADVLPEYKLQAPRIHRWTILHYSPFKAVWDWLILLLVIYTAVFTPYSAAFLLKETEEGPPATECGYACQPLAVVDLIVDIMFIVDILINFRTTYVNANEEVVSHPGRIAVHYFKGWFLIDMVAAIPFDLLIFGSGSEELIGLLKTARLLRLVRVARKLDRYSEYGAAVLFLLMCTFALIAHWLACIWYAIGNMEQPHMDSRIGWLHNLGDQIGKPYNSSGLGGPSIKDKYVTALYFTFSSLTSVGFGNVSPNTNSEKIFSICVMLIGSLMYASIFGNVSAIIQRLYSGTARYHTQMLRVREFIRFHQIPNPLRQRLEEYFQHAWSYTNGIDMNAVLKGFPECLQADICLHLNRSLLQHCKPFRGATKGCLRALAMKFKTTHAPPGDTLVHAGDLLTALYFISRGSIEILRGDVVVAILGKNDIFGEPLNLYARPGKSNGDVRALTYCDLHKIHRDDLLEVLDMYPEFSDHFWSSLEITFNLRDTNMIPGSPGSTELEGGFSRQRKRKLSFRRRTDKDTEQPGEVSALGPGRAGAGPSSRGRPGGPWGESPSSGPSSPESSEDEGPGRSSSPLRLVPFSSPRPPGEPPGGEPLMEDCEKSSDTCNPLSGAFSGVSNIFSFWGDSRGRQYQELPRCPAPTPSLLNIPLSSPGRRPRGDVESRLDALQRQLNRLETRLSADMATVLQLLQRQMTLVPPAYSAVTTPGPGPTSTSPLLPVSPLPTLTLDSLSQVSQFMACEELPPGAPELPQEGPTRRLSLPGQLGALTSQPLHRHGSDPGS

In order of falling “hERG current change (%, negative = inhibition) at 10uM” value:
1. COc1c(C)cccc1C(=O)Nc1ccc(OCC(=O)N2CCOCC2)cc1C  27.2%
2. COc1ccccc1CNC(=O)C1CCN(S(=O)(=O)c2ccc3nc4c(c(C(=O)O)c3c2)CCCC4)CC1  23.2%
3. Cc1ccc(-c2noc(CCCC(=O)NCC3CCCO3)n2)cc1 (stereo not shown)  20.3%
4. COc1ccc(NC(=O)CCC(=O)Nc2nnc(C(C)C)s2)cc1Cl  19.2%
5. O=C(O)/C=C/c1ccc(-n2ccnc2)cc1  16.8%
6. Cc1ccc(Cl)cc1NC(=O)C(=O)N/N=C/c1ccc2c(c1)OCO2  15.2%
7. COc1ccccc1CN1C[C@@H]2C[C@@H](C3=Cc4cccc(OC)c4OC3)N3CCC[C@@]23C1=O  13.8%
8. O=C(/C=C/c1ccco1)Nc1scc(-c2ccccc2)c1C(=O)O  10.5%
9. CN(C)S(=O)(=O)c1cccc(NC(=S)N/N=C/c2cc(Br)ccc2O)c1  9.82%
10. COc1ccc(OC)c2c1CC(C)(C)NC2=O  9.67%
11. Cc1ccccc1NC(=O)C(C)OC(=O)C1CC(=O)N(Cc2ccco2)C1 (stereo not shown)  9.65%
12. Cc1ccc(NC(=O)CCc2nnc3ccc(NCc4ccco4)nn23)nc1  9.47%
13. COc1ccc(CCNC(=O)CN(c2cccc([N+](=O)[O-])c2)S(C)(=O)=O)cc1  9.26%
14. Cc1ccc(-c2nc3ccccc3nc2NN)cc1  9.04%
15. Cc1ccc([N+](=O)[O-])cc1NC(=O)C(Sc1ccccc1)c1ccccc1 (stereo not shown)  8.52%
16. O=C1C2C3c4ccccc4C(c4ccccc43)[C@@H]2c2nc3ccccc3n21 (stereo partly shown)  7.52%
17. COc1ccc(C)cc1NC1=NC(C)(C)CS1  7.23%
18. C/C(=N/NC(=O)CNC(=O)Cc1ccccc1)c1ccc(Cl)cc1  5.97%
19. C/C(CC(=O)NC(C)c1ccccc1)=N\NC(N)=S (stereo not shown)  5.65%
20. COc1cccc(NC(=O)COc2cc(C)cc3oc(=O)cc(C)c23)c1  5.18%
21. O=C(c1ccc(F)cc1)N1CCC2(CC1)NCCc1[nH]cnc12  4.43%
22. COC(=O)c1cc(C)nc2c1c(C)nn2-c1ccccc1  4.4%
23. CC(=O)Nc1sc2c(c1C#N)CC(C)(C)NC2(C)C  3.1%
24. C/C(=N\N1CCN(Cc2ccccc2Cl)CC1)c1ccc(F)cc1  2.05%
25. COC(=O)c1[nH]c(C)c(/C(O)=C2\C(=O)C(=O)N(CCN(C)C)C2c2ccc(C)o2)c1C (stereo not shown)  1.89%
26. CC(C)(C)N/N=C/c1c(O)n(-c2ccc(Cl)cn2)c(=O)c2ccccc12  1.43%
27. CSc1cc(-c2ccc(Cl)cc2)[nH]c(=O)c1C#N  1.3%
28. Cc1ccc(C)c(NS(=O)(=O)c2ccc(OCC(=O)NCC3CCCO3)cc2)c1 (stereo not shown)  0.933%
29. COc1ccc(S(=O)(=O)N2CCC[C@H]2C(=O)NC2=NCCS2)cc1  -1.09%
30. Cc1occc1C(=O)NC(C)CCc1ccccc1 (stereo not shown)  -1.22%
31. CC[N+](C)(CC)CCOC(=O)C(O)(c1ccccc1)C1CCCCC1.[Br-] (stereo not shown)  -2.35%
32. Cc1c(/C=N/NC(=O)c2cccnc2)c2ccccn2c1C(=O)c1ccc(F)cc1  -2.38%
33. CNC(=O)CN1C(=O)NC(c2ccccc2)(c2ccccc2)C1=O  -2.48%
34. O=C(COc1ccc2ccccc2c1Br)NC(=S)Nc1cccc(CO)c1  -2.61%
35. Cc1nc(SC2CC(=O)N(c3ccccc3)C2=O)nc2c1CCCC2 (stereo not shown)  -3.22%
36. CC(C)(C)NS(=O)(=O)c1ccc(CCC(=O)Nc2cc(Cl)ccc2Oc2ccccc2)cc1  -3.35%
37. CCOC(=O)c1c(NC(=S)Nc2ccccc2)sc2c1CC(C)(C)SC2  -3.74%
38. CCS(=O)(=O)c1c([N+](=O)[O-])ncn1C  -3.8%
39. CCN(CC(=O)Nc1c(F)cccc1F)C(=O)CC1CCCCC1  -4.29%
40. Cc1cc(C(C)(C)C)cc(S(=O)(=O)Nc2ccc(O)c(C(=O)O)c2)c1C  -4.48%
41. COCCn1cc(C(=S)N2CCOCC2)c2ccccc21  -5.24%
42. CN(CCCC(=O)Nc1ccccc1F)S(=O)(=O)c1ccc(F)cc1  -6.05%
43. CC(=O)Nc1c(I)c(NC(C)=O)c(I)c(C(=O)[O-])c1I.O.[Na+]  -6.22%
44. CN(C(=O)c1ccccc1[N+](=O)[O-])c1ccccc1C(=O)NCc1ccccc1  -7.21%
45. O=C(Nn1c(C2CC2)nc2ccccc2c1=O)c1ccco1  -8.14%
46. Cl.c1ccc2c(CC3=NCCN3)cccc2c1  -9.31%
47. CCOCCCn1c(=NC(C)=O)c(C#N)cc2c(=O)n3ccccc3nc21  -15.4%
48. CC(=O)c1cccc(N(C(=O)CNC(=O)c2ccco2)C(C(=O)NCc2ccco2)c2ccccc2)c1 (stereo not shown)  -17.3%
49. O=C(Nc1cc(S(=O)(=O)N2CCOCC2)ccc1N1CCOCC1)c1cccc(S(=O)(=O)N2CCCCC2)c1  -17.5%
50. O=C(Nc1cccc(NC(=O)c2ccco2)c1)c1ccc([N+](=O)[O-])cc1  -18.8%
51. O=C(NCCCc1ccccc1)c1cccc(Br)c1  -27%
52. O=C(CCNC(=O)c1ccc([N+](=O)[O-])cc1)Nc1cccc(S(=O)(=O)N2CCOCC2)c1  -31.7%
53. CCN(CC)CCCNC(=O)c1cc(Nc2ccc(OC)cc2OC)nc2ccccc12  -36.1%
54. Clc1ccc(CN2CCC(Cc3ccccc3)CC2)cc1  -40.9%
55. CCN(CC)Cc1c(O)ccc2occ(C(=O)c3ccc(OC)cc3)c12  -74.2%
